Measurements taken from PubChem BioAssay AID1345082 (National Center for Advancing Translational Sciences (NCATS), 2018).
“And” between values parts separate entries of the source, which are not always exact repeats. Equal values may be shown once. About 4,000 (4.3%) of roughly 94,000 compounds were called active. The inconclusive results got no clear call from the source; some entries with a clear call stand among them for comparison. The call rests on the fitted dose curve; in most records, active means well fitted inhibition curve with a large enough effect; inconclusive means small, poorly fitted or top-dose-only effect; inactive means no such curve, though single readings can be large or run the other way. A potency beside an inconclusive call is a rough fit, not a confirmed value.

Assay: Cytotoxic Profiling in NIH 3T3 Cell Line of Diverse Libraries Using Quantitative High-Throughput Screening; further: nearly all actives have a fitted effect of over 55% in size
Conditions: NIH 3T3 viability, CellTiter-Glo ATP luminescence, 48-72 h; activity change, negative = cytotoxicity: at 96.7 µM (top of the series) unless noted; series mostly up to 96.7 µM
Summary of the method: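 First NIH 3T3 cells are plated at 400 cells/well; next compound is pinned in; then plates incubate 48 or 72 hr at 37 °C; finally CellTiter-Glo is added and luminescence read after 10 min.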
On the % scale 0 is the no-effect control and ±100 the full control effect; potency means the concentration at half of the fitted maximal effect; tags describe the fitted curve by direction and shape.

Compound | activity change, negative = cytotoxicity | Potency
O=C(NCc1ccccc1F)c1cn2cc(-c3ccc(F)cc3)sc2n1 | inactive: -17.1% [at 138 µM] | –
COc1cc(F)ccc1CN1CCCC2(Cc3ccccc3CNC2=O)C1 (stereo not given) | – | inconclusive: 56.2 µM [inhibitor, partial curve, poor fit]
CN1CCOc2c(C(=O)NCc3cccnc3)cc(-c3cccc4[nH]ccc34)cc21 | – | inconclusive: 89.1 µM [inhibitor, partial curve]
O=C(Nc1ccc2c(c1)OCCO2)N1CCCC(Cn2c(C3CC3)nc3cccnc32)C1 (stereo not given) | inactive: -6.56% | –
CC(=O)Nc1cccc2ccc(OCc3nnc(C(=O)N4CCC[C@@H]4c4ccc(Br)cc4)n3Cc3ccccc3)cc12 | – | inconclusive: 20 µM [inhibitor, full curve, poor fit]
O=C(CC1CCCC1)N1CCC(C2CCN(Cc3cccc(F)c3F)CC2)C1 (stereo not given) | – | inconclusive: 44.7 µM [inhibitor, partial curve]
COc1ccc(C(=O)N2CCC3(CC2)NCCc2c3[nH]c3ccccc23)cc1F | – | inconclusive: 44.7 µM [inhibitor, partial curve, poor fit]
O=C(c1ccc(C(F)(F)F)cc1)N1CCC2(CC1)COc1ccccc1NC2=O | – | inconclusive: 44.7 µM [inhibitor, partial curve, poor fit]
COc1cccc(CCC(=O)N2CCC3(CC2)C(=O)N(C)c2ccccc23)c1 | inactive: -29.4% | –
COc1ccc(Cc2nc3nccc(-c4cccs4)n3n2)cc1 | – | inconclusive: 50.1 µM [inhibitor, partial curve, poor fit]
CCNC(=O)N1CCOc2ccc(CCC(=O)NCc3nc4ccccc4n3C)cc2C1 | inactive: -6.15% | –
COCCN1C(=O)CO[C@H]2CN(Cc3ccccc3)C[C@H]21 | – | inconclusive: 141 µM [inhibitor, partial curve, poor fit]
Cc1ccc(-c2cc(C(=O)N3CCN(c4ncccn4)CC3)c3cnn(C)c3n2)cc1 | – | inconclusive: 50.1 µM [inhibitor, partial curve, poor fit]
Cn1cccc1C(=O)N1CCC(n2cc(-c3nc(-c4ccccc4)no3)nn2)C1 (stereo not given) | – | inconclusive: 28.2 µM [inhibitor, full curve]
Cn1cnc2cc(-c3cccc(C(F)(F)F)c3)cc(C(=O)NCc3cccnc3)c21 | – | inconclusive: 56.2 µM [inhibitor, partial curve, poor fit]
CC1(COc2ccc3[nH]ccc3c2)COc2ccc(C(=O)NCc3ccco3)cc2N1 (stereo not given) | – | inconclusive: 89.1 µM [inhibitor, partial curve]
CCOC(=O)[C@H]1C[C@]2(CCCCN(CCO)C2=O)N(C(=O)C(CC)CC)[C@H]1c1ccco1 | inactive: -20.8% | –
NCCn1cc(C(=O)N2CCCC(c3[nH]ncc3Cc3ccccc3)C2)nn1 (stereo not given) | inactive: -6.72% | –
CC(=O)Nc1ccc(-c2c(-c3ccc4c(c3)OCO4)nn(-c3cc(C)ccc3C)c2OC(C)=O)cc1 | – | inconclusive: 50.1 µM [inhibitor, partial curve, poor fit]
C[S+](=O)([O-])c1ccc(-c2nnc3ccc(C(=O)NCc4ccc(Cl)cc4)cn23)cc1 | – | inconclusive: 35.5 µM [inhibitor, partial curve]

Compound | activity change, negative = cytotoxicity | Potency
CC1(C(=O)NCc2cccc(F)c2)CCCCC(=O)N1 (stereo not given) | inactive: -20.5% | –
CCOCCNC(=O)c1nc2cccnc2n(C2CC2)c1=O | inactive: -8.36% [at 138 µM] | –
O=C(C1CCCN(c2nccc(Nc3ccccc3F)n2)C1)N1CCOCC1 (stereo not given) | inactive: -25.8% | –
COc1ccc(NC(=O)CN2C(=O)C(c3ccccc3)=NC23CCCCC3)cc1 | inactive: -27% | –
COc1ccccc1-c1cccc(CN2CCCC(C(=O)NC3CCCC3)C2)c1 (stereo not given) | – | active: 35.5 µM and inconclusive: 44.7 µM [inhibitor, partial curve, poor fit]
O=C(Nc1ccccc1F)C1c2ccccc2C(=O)N(Cc2ccccc2)C12CCCC2 (stereo not given) | – | inconclusive: 44.7 µM [inhibitor, partial curve, poor fit]
COc1cc(CN(C)C(=O)c2c(C)noc2-c2cccc(F)c2)cc(OC)c1OC | – | inconclusive: 44.7 µM [inhibitor, partial curve, poor fit]
Cc1nn(-c2ccc(C(C)C)cc2)c(C)c1[C@@H]1C=C[C@@H](NCc2cccc(Cl)c2)C1 | – | active: 12.6 µM
COc1ccc(NC(=O)N2CCC(O)(c3csc(CN4CCc5ccccc5C4)n3)CC2)cc1 | – | inconclusive: 39.8 µM [inhibitor, full curve]
CCc1ccc(CNC(=O)CCC2CCN(S(=O)(=O)c3ccccc3)CC2)cc1 | – | inconclusive: 44.7 µM [inhibitor, partial curve, poor fit]
COc1ccc(-c2ccc(C(=O)Nc3cccc(F)c3)cc2)nn1 | – | inconclusive: 28.2 µM [inhibitor, partial curve, poor fit]
O=C(CCc1ccccc1)NCc1nnc2ccc(-c3ccccc3)nn12 | inactive: -10.8% | –
COC(=O)[C@@H]1Cc2c([nH]c3ccccc23)[C@H]2C[C@H](NC[C@H]3CCCO3)C[C@@H](c3ccccc3F)N21 | – | active: 35.5 µM
COc1ccc(Cn2c(C3CCN(C(=O)Cc4ccc(C)cc4)CC3)n[nH]c2=O)cc1 | – | inconclusive: 56.2 µM [inhibitor, partial curve, poor fit]
Cc1nn(-c2ccccc2)c2c1C(C)N(C1CCN([S+](=O)([O-])c3ccc(C4CC4)cc3)C1)C2=O (stereo not given) | – | inconclusive: 50.1 µM [inhibitor, partial curve, poor fit]
CC(C)NC(=O)C1CCCCN1Cc1ccc(-c2cccs2)cc1 (stereo not given) | – | inconclusive: 50.1 µM [inhibitor, partial curve, poor fit]
O=C(Cc1ccsc1)N1CC(c2noc(COc3ccccc3)n2)C1 | inactive: -21.4% | –
O=C1NCc2ccccc2CC12CCCN2CC1CCCCC1 (stereo not given) | – | inconclusive: 44.7 µM [inhibitor, partial curve, poor fit]
COc1ccc(-c2noc([C@@H]3Cc4nc[nH]c4CN3C(=O)CCC(=O)O)n2)cc1 | inactive: -28.1% [at 174 µM] | –
COc1ccc(-c2cccc(C(=O)N3CCN([S+](=O)([O-])c4cccs4)CC3)c2)nn1 | inactive: -13.5% | –
